Data on 29 molecules can be found in PubChem BioAssay AID1745853 (National Center for Advancing Translational Sciences (NCATS), 2022).

SMILES strings stand for the structures. The list shows a part of the results. Further columns of the screen follow, without active or inactive calls.

Common to all, as to test: Primary Screen for Target Class Profiling of Small Molecule Inhibitors of Methyltransferases
The target of test [1] is Glycine N-methyltransferase (Homo sapiens) (UniProt Q14749). The conditions noted are these: purified enzyme, MTase-Glo SAH luminescence; measured here: GNMT inhibition; at 40 µM; stronger effect = lower value. The procedure, abridged: (§1)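 Each enzyme was assayed with SAM and its substrate. SAH formation detected by MTase-Glo luminescence; single-point 40 uM screen[…].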

In test [2] the target is Guanidinoacetate N-methyltransferase (Homo sapiens) (UniProt Q14353). To be noted: purified enzyme, MTase-Glo SAH luminescence; measured here: GAMT inhibition; at 40 µM; stronger effect = lower value. The gist of the method: as §1
Test [3] has as its target Histamine N-methyltransferase (Homo sapiens) (UniProt P50135). To be noted: purified enzyme, MTase-Glo SAH luminescence; measured here: HNMT inhibition; at 40 µM; stronger effect = lower value. The procedure, abridged:
as §1

The target in test [4] is Nicotinamide N-methyltransferase (Homo sapiens) (UniProt P40261). To be noted: purified enzyme, MTase-Glo SAH luminescence; measured here: NNMT inhibition; at 40 µM; stronger effect = lower value. The gist of the method: as §1
In test [5] the target is Phenylethanolamine N-methyltransferase (Homo sapiens) (UniProt P11086). To be noted: purified enzyme, MTase-Glo SAH luminescence; measured here: PNMT inhibition; at 40 µM; stronger effect = lower value. The procedure, abridged: as §1
% is set by controls: 0 for no effect and ±100 for the full control effect.

Regarding `CC(=O)N1CCN(C(=O)C[C@@H]2C[C@@H](C(C)C)[C@H](CNC(=O)c3cncnc3)C=C2C)CC1`, the activity change, negative = inhibition was -5.99% in test [1]; -5.49% in test [2]; -2.97% in test [3]; -8.42% in test [4]; -2.46% in test [5].
Consider `CC(C)C1c2cccn2CCN1C(=O)Nc1cccc(F)c1` (stereo not given), for which the activity change, negative = inhibition in test [1] was 12.4%; in test [2] it was 1.63%; in test [3], 2.19%; in test [4] it was -1.87%; in test [5], 7.59%.
Consider `c1cncc(-c2ccnc(NCC(c3cccnc3)N3CCCCC3)n2)c1` (stereo not given), for which the activity change, negative = inhibition was -9.59% in test [1]; -4.2% in test [2]; -1.63% in test [3]; -7.15% in test [4]; 0.373% in test [5].
For `CCCCN1C(=O)c2cc(C(=O)NCc3ccc(CC)cc3)nn2CC1(C)C(=O)NC1CCCC1` (stereo not given), the activity change, negative = inhibition in test [1] is -0.073%; in test [2], -0.591%; in test [3], 0.091%; in test [4] it was -5.16%; in test [5], -3.58%.
Turning to `CC(C)CCNC(=O)CCc1nnc2n(CCc3ccccc3)c(=O)c3ccccc3n12`, the activity change, negative = inhibition in test [1] was -6%; in test [2], 3.58%; in test [3], 4.2%; in test [4] it was 5.67%; in test [5] it was -4.08%.
For the molecule `Cc1oc2c(c1C(=O)N1CCN(C3CCCC3)CC1)CN(Cc1cccc(F)c1)CC2`, the activity change, negative = inhibition was -6.45% in test [1]; -5.97% in test [2]; -8.43% in test [3]; -13.6% in test [4]; -19.8% in test [5].
With `C[C@]12CCC[C@](C)(C(=O)O)C1CCC13C=C(CO)C(CCC12)C3` (stereo not given in full), the activity change, negative = inhibition is 0% in test [1]; 1.81% in test [2]; 5.02% in test [3]; -11% in test [4]; 4.59% in test [5].
Turning to `CS(=O)(=O)N1CC2(CCN(C3COC3)C2)Cc2ccccc21` (stereo not given), the activity change, negative = inhibition in test [1] was -9.51%; in test [2], -3.31%; in test [3], -3.12%; in test [4] it was -4.87%; in test [5] it was -1.38%.
In the same order, the values of `COc1c(C)c(OCC(O)C(C)(C)O)cc2c1CNC2=O` (stereo not given) are -2.7%, -13.4%, 4.17%, -24.9% and -4.12%.
With `CC1(C)CC[C@]2(C(=O)O)CC[C@]3(C)C(=CCC4[C@@]5(C)C[C@H](O)[C@H](O[C@@H]6OC[C@H](O)[C@H](O)[C@H]6O)[C@@](C)(CO)C5CC[C@]43C)[C@@H]2C1` (stereo not given in full), the activity change, negative = inhibition in test [1] was 0%; in test [2] it was 1.96%; in test [3], 0.825%; in test [4], -9.83%; in test [5], 7.3%.
For the molecule `Cc1ccc(-c2cn3c(n2)N(C(=O)C2CCCO2)CCC3)cc1` (stereo not given), the activity change, negative = inhibition in test [1] is -1.34%; in test [2] it was -0.619%; in test [3] it was -9.67%; in test [4], -10.1%; in test [5], 10.5%.
For `CC1(C(=O)NC2CCCCCCC2)Cc2ccccc2C(=O)N1Cc1ccco1` (stereo not given), the activity change, negative = inhibition in test [1] is -4.47%; in test [2] it was 0%; in test [3] it was 12.8%; in test [4], 0.761%; in test [5], 4.27%.
Regarding `COc1ccc2c3ccnc4ccc(=O)n(c2c1)c43`, the activity change, negative = inhibition was -38.6% in test [1]; -8.66% in test [2]; -1.35% in test [3]; -24.7% in test [4]; -5.23% in test [5].
As to `COc1ccccc1NC(=O)N1CCn2cccc2C1C` (stereo not given), the activity change, negative = inhibition in test [1] was -5.5%; in test [2] it was 3.94%; in test [3] it was -7.01%; in test [4] it was -12.9%; in test [5], -4.29%.
On to `CC1=C(C(=O)O)/C(=C\CO[C@@H]2O[C@H](CO)[C@@H](O)[C@H](O)[C@H]2O)C(OC(=O)/C=C/c2ccc(O)cc2)C1` (stereo not given in full), for which the activity change, negative = inhibition in test [1] was -4.4%; in test [2], -6.39%; in test [3], -1.09%; in test [4], -15.7%; in test [5] it was 1.86%.
For `CN1CCN(CCCNC(=O)Cn2ccc3cc(S(=O)(=O)N4CCCCC4)ccc32)CC1`, the activity change, negative = inhibition was 2.9% in test [1]; 0% in test [2]; -11.8% in test [3]; 2.25% in test [4]; -0.742% in test [5].
Turning to `COc1cc(/C=C/C(=O)OC[C@H]2O[C@H](O[C@]3(CO)O[C@H](CO)[C@@H](O)[C@@H]3O)[C@H](O)[C@@H](O)[C@@H]2O)cc(OC)c1O`, the activity change, negative = inhibition in test [1] is -2.59%; in test [2] it was -2.65%; in test [3], 2.93%; in test [4], -13.2%; in test [5], -9.75%.
With `CC1(C)C(=O)C(C)(C)c2cc(C(=O)Nc3ccc(C(=O)O)cc3)ccc21`, the activity change, negative = inhibition in test [1] is -4.2%; in test [2], 4.9%; in test [3], 13.9%; in test [4], -9.71%; in test [5] it was 5.29%.
For `Cn1c(=O)n(C)c2cc(S(=O)(=O)Nc3ccc(N4CCOCC4)cc3)c(Cl)cc21`, the activity change, negative = inhibition was -1.84% in test [1]; 0% in test [2]; -11% in test [3]; -3.57% in test [4]; -9.81% in test [5].
In the same order, the values of `CCn1c(-c2nonc2N)nc2c(C#CC(C)(C)O)ncc(OCC3CCCNC3)c21` (stereo not given) are -1.34%, 14.9%, -36.1%, -66.5% and 5.42%.
Turning to `CCOCCCN1C(=O)c2cc(-c3ccc(OC)c(OC)c3)nn2CC1(C)C(=O)NC1CCCCC1` (stereo not given), the activity change, negative = inhibition amounted to 0.937% in test [1]; 4.65% in test [2]; 8.36% in test [3]; 1.2% in test [4]; 0.352% in test [5].
In the case of `C=C(C(=O)O)C1CCC2(C)CCC(O)C(C)(O)C2C1` (stereo not given), the activity change, negative = inhibition in test [1] was -1.72%; in test [2] it was -3.11%; in test [3], 3.8%; in test [4], -14.8%; in test [5] it was -11.9%.
For `CO[C@@H]1[C@]2(O)C(=O)N3/C=C\C(C)(C)c4[nH]c5ccccc5c4/C=C\3C(=O)N2[C@]23[C@H](CO)C(C)(C)N2c2ccccc2[C@]13O`, the activity change, negative = inhibition in test [1] was -1.28%; in test [2], 5.86%; in test [3], 5.62%; in test [4], -7.97%; in test [5], -1.61%.
With `COC1CCC12CCN(Cc1ccc(C)o1)CC2` (stereo not given), the activity change, negative = inhibition was -5.26% in test [1]; -5.15% in test [2]; -3.31% in test [3]; -4.32% in test [4]; -4.67% in test [5].
As to `CC1(O)CCC2C(C(=O)O)=COC(OC3OC(CO)C(O)C(O)C3OC(=O)/C=C/c3ccc(O)cc3)C21` (stereo not given), the activity change, negative = inhibition in test [1] was 3.34%; in test [2], -0.639%; in test [3] it was 8.14%; in test [4] it was -8.95%; in test [5], 0.193%.
For the molecule `COc1cc(/C=C2\CCCN([C@@H](C)c3ccc(F)cc3)C2=O)ccc1-n1cnc(C)c1`, the activity change, negative = inhibition is -63.4% in test [1]; 5.38% in test [2]; -45.7% in test [3]; -40.2% in test [4]; -4.69% in test [5].
Turning to `N#Cc1ccc(O[C@@H]2c3ccccc3C[C@H]2N2CCC[C@@H](N)C2)c(Cl)c1`, the activity change, negative = inhibition was -2.96% in test [1]; 9% in test [2]; 1.7% in test [3]; -13% in test [4]; 5% in test [5].
Regarding `COc1cccc2c1OCCCN(c1cc(C3CC(O)C3)nc(N)n1)C2` (stereo not given), the activity change, negative = inhibition in test [1] is -7.12%; in test [2], -8.01%; in test [3] it was -50.7%; in test [4], -8.48%; in test [5], -2.5%.
On to `CC(=O)O[C@@H]1[C@@H](OC(C)=O)[C@H](C)O[C@@H](O[C@H]2[C@@H]3C=CO[C@@H](O[C@@H]4O[C@H](CO)[C@@H](O)[C@H](O)[C@H]4O)[C@@H]3[C@@]3(CO)O[C@@H]23)[C@@H]1OC(=O)/C=C/c1ccccc1`, for which the activity change, negative = inhibition is -3.35% in test [1]; -7.14% in test [2]; 6.9% in test [3]; -18.6% in test [4]; -6.54% in test [5].
